# According to PubChem BioAssay AID485344 (National Center for Advancing Translational Sciences (NCATS), 2010):
# In all, about 340,000 compounds went through this assay and about 6,900 (2%) were called active. No stated cut-off is given here; in the data, active means inhibition above about 30%; inactive means below that, where a call was filed. This is a selection; strong and weak results do not stand in their true shares. The source gives no active or inactive call for entries shown without one.
# Biological target: D(2) dopamine receptor (Homo sapiens) (UniProt P14416)
# Chain of UniProt P14416 (P14416 whole entry, looked up): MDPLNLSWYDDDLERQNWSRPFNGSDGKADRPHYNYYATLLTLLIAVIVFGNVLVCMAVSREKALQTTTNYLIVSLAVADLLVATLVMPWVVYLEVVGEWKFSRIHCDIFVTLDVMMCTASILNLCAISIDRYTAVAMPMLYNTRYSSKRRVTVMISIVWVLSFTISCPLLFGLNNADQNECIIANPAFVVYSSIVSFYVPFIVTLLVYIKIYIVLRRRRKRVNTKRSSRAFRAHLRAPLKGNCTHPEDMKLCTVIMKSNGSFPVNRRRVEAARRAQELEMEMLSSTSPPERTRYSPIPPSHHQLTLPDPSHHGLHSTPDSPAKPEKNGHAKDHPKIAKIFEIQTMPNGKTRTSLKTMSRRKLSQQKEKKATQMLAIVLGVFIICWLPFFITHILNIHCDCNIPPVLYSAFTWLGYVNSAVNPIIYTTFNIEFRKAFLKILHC
# Assay: HTS Assay for Allosteric Antagonists of the Human D2 Dopamine Receptor: Primary Screen for Antagonists; further: 0% is about no effect
# Settings: HEK293 TREx D2 cells, calcium flux, dopamine EC80; at 10 µM; stronger effect = higher value
# Outline: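 Cells plated overnight at 30 C with tetracycline; no-wash calcium dye, 30–90 min RT; 10 s baseline; compound pinned; 180 s read; EC80 dopamine added; another 180 s read.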
row,Structure (SMILES),inhibition
1,Cc1ccc2c(CC(=O)N3CCN(c4cccc(Cl)c4)CC3)coc2c1,11.7%
2,CCCCNc1ccc(-c2nc(-c3ccccc3)no2)cc1[N+](=O)[O-],-0.0967%
3,CSc1ncc(Cl)c(C(=O)NCc2ccc(C)cc2)n1,14.7%
4,COc1ccc(C2C(=O)N(C3CCC(C)CC3)CC(=O)N2Cc2ccc(C)cc2)cc1OC (centres undefined),12.8%
5,O=S(=O)(Nc1ccc(F)c(C(F)(F)F)c1)c1ccc(N2CCCCS2(=O)=O)cc1,-5.66%
6,COc1ccc(OC)c(CNS(=O)(=O)c2c(C(=O)N3CCC(C)CC3)c(C)n(C)c2C)c1,18.7%
7,Cc1cc(C)cc(NC(=O)Cn2nnc(C(=O)NCCc3ccccc3)c2N)c1,25.5%
8,NC(=O)CSc1nc2ccc(NC(=O)COc3ccccc3)cc2s1,20.5%
9,CC1CCC(NC(=O)c2ccc3c(c2)N(Cc2ccccc2F)C(=O)c2ccccc2S3)CC1 (centres undefined),18.8%
10,CCCn1c(=N)c(C(=O)NC2CCCC2)cc2c(=O)n3cc(C)ccc3nc21,9.41%
11,c1ccc(-c2cc(-c3ccccc3)c3c(n2)-c2ccccc2OC3)cc1,8.89%
12,Cc1nc2ccc(S(=O)(=O)NC(C(=O)NCc3ccccc3Cl)C(C)C)cc2s1 (centres undefined),2.67%
13,O=C(CSc1nnc(-c2ccccc2)c(-c2ccccc2)n1)N1CCc2ccccc21,active: 69%
14,Cc1cccc(NC(c2cccc(F)c2)c2ccc3ccc(C)nc3c2O)n1 (centres undefined),-0.541%
15,Cc1ccc(CCNC(=O)c2cc3c(s2)-c2ccccc2OC3)cc1,3.63%
16,Cc1ccc(NC(=O)CN2C(=O)CSc3ccc(S(=O)(=O)N(C)C)cc32)cc1C,2.17%
17,COC(=O)c1cc2occc2n1Cc1ccc(F)cc1Cl,15.2%
18,Cc1ccc(CSC2=Nc3ccccc3C3=NC(CCC(=O)NCCc4ccccc4)C(=O)N23)cc1 (centres undefined),-4.91%
19,Cc1ccc(-c2nn(CCC(=O)Nc3ccc(Cl)c(Cl)c3)c(=O)c3ccccc23)cc1,-8.02%
20,COc1ccc(-c2nc(S(=O)(=O)c3ccc(Cl)cc3)c(N3CCCCCC3)o2)cc1,4.45%
21,Cc1ccc(C(=O)NCCSc2c(C)[nH]c3ccccc23)cc1C,-26%
22,CCOc1cc(C2C(C(N)=O)=C(C)Nc3ncnn32)cc(Br)c1O (centres undefined),-16.8%

row,Structure (SMILES),inhibition
1,O=C(CCC(=O)c1ccc(F)cc1)Nc1cc(Cl)cc(Cl)c1,active: 39.1%
2,O=C(CC(c1cccs1)N1Cc2ccccc2C1=O)Nc1ccccc1F (centres undefined),-13.8%
3,CC(CNC(=O)c1sc2ncccc2c1-n1cccc1)c1ccccc1 (centres undefined),-11.8%
4,CC1CCCN(C2=C(Cl)C(=O)N(c3cccc(Cl)c3)C2=O)C1 (centres undefined),active: 44.1%
5,CC1(C)CC(=O)c2cc(C(=O)Nc3ccc(Cl)cc3)c(=O)[nH]c2C1,11.4%
6,O=C(CSc1ccccc1)NNC(=O)c1ccncc1,active: 57.1%
7,Cc1nc2scc(C)n2c(=O)c1S(=O)(=O)Nc1ccc(N2CCN(C(=O)C(C)C)CC2)cc1,-24.4%
8,Cc1ccc(NC(=O)C2=CC(c3cccs3)=NS(=O)(=O)N2C)cc1,-18.3%
9,Nc1nc2nc(-c3ccc(Cl)cc3)cc(C(F)(F)F)n2n1,10.4%
10,Cc1ccc(NC(=O)CSc2nc3c(c(=O)[nH]2)CN(Cc2ccccc2)CC3)cc1Cl,-15.1%
11,CC(=O)N1c2ccccc2C(=O)C1N1CCN(c2cccc(C)c2C)CC1 (centres undefined),11.5%
12,Nc1nonc1-c1nc2ccccc2n1Cc1ccc(Br)cc1,16.5%
13,COC(=O)c1c(NC(=O)C2c3ccccc3Oc3ccccc32)sc2c1CCC(C)C2 (centres undefined),-22.2%
14,COc1ccccc1CCNC(=O)Cc1c(C)c2c(O)cc(C)cc2oc1=O,5.27%
15,COc1cc(-c2cc3n(C)c(C)c(CCC(=O)Nc4ccc(F)cc4)c(=O)n3n2)cc(OC)c1OC,1.3%
16,COc1ccc(Cn2c(=O)c3oc4ccccc4c3n(Cc3ccccc3)c2=O)cc1,7.53%
17,CCOC(=O)c1[nH]c(C)c(CCC(=O)NCc2cccc(Cl)c2)c1C,2.72%
18,Cc1ccc(OCCSc2nc(-c3cccs3)nc3cc(=O)[nH]n23)cc1Cl,4.45%
19,O=C(CSc1c2c(nc3ccccc13)CCC2)Nc1ccc(F)cc1F,-0.104%
20,CCc1cc(=O)oc2cc(C)c3c(-c4ccc(F)cc4)coc3c12,8.16%
21,COc1ccccc1N1CCN(C2CCCN(S(=O)(=O)c3ccc(C)cc3)C2)CC1 (centres undefined),active: 66.5%
22,Cc1ccc(S(=O)(=O)N2CCC(C(=O)Nc3cc(C)ccc3C)CC2)cc1,4.68%

row,Structure (SMILES),inhibition
1,COc1ccccc1-c1c(C(F)(F)F)oc2c(CN3CCCCC3C)c(O)ccc2c1=O (centres undefined),9.45%
2,Cc1ccccc1CN1C(=O)c2ccccc2Sc2ccc(C(=O)N3CCOCC3)cc21,24.5%
3,Cc1cccc(-c2nc(-c3ccc4c(c3)[nH]c(=O)n4C)no2)c1,-2.58%
4,S=C(Nc1ccc(Cl)cc1)NC1CCN(Cc2ccccc2)CC1,active: 69.4%
5,CCN1C(=O)c2ccccc2S(=O)c2ccc(C(=O)N3CCN(c4ccc(F)cc4)CC3)cc21 (centres undefined),-15.2%
6,Cc1cc(F)ccc1NC(=O)CCS(=O)(=O)c1cccc2nsnc12,-12.7%
7,CC(=O)c1[nH]c(C)c(C(=O)NCc2ccc(Cl)cc2)c1C,19.8%
8,O=C(Nc1ccc2oc(-c3cccc4c(Br)cccc34)nc2c1)c1ccc(Br)cc1,-12.2%
9,O=C(c1ccco1)N1CCN(Cc2cccnc2)CC1,active: 31.2%
10,Cc1cccc(-n2nnc(-c3nc(-c4cccs4)no3)c2N)c1C,-12%
11,Cc1ccccc1CNC(=O)CCCn1ncn2c(cc3occc32)c1=O,4.45%
12,O=C1C2=C(Nc3ccccc3SC2c2ccc(C(F)(F)F)cc2)c2ccccc21 (centres undefined),10.8%
13,COc1ccc(NC(=O)CSC2=Nc3ccccc3C3=NC(Cc4ccccc4)C(=O)N23)cc1 (centres undefined),-3.3%
14,COc1ccc(NC(=O)c2c(NC(=O)c3cccc(C)c3)sc3c2CCC3)cc1,-11.1%
15,COc1ccccc1Nc1ncc2c(n1)CCN(CC(C)C)C2,-24.4%
16,COc1ccc(-c2nc3ccccc3o2)cc1NC(=O)c1ccc(-c2ccc(C)c(Cl)c2)o1,-0.152%
17,O=C(Nc1ccc(Cl)cc1)c1ccc2ncsc2c1,active: 40.1%
18,CCN(C(=O)c1cc2c(=O)oc3ccccc3c2s1)c1cccc(C(F)(F)F)c1,13.5%
19,Cc1ccc(Nc2c(-c3ccco3)nc3ccc(C)cn23)cc1,-3.03%
20,CCOc1ccc(OCC)c(Nc2nc3ccccc3n3nnnc23)c1,-4.37%
